In the supplement of paper PMC4604168 (melanoma cell lines):
Some of the results follow. Repeats are few or missing, and single values can be far off.

Legend:
Experiment in all cases: cell count relative to DMSO control; melanoma cells; higher = more viable cells
Conditions in all cases: library dose: standard library concentration; 72 h
A101D = test system: A101D
A2058 = test system: A2058
A375 = test system: A375
501Mel = test system: 501Mel
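Also: cells treated in 1,536-well plates, then fixed and DAPI-stained, with nuclei counted from automated high-throughput microscope images.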

Row | Compound | cell count (A101D) | cell count (A2058) | cell count (A375) | cell count (501Mel)
1 | CCN(CC)CCNC(=O)c1c(C)[nH]c(/C=C2\C(=O)Nc3ccc(F)cc32)c1C [sunitinib] + CC(C)(C)c1cnc(CSc2cnc(NC(=O)C3CCNCC3)s2)o1 [SNS-032] (first compound 2 µM, partner dose 0.05 µM) | 40.1% | 21.7% | 106% | 
2 | COc1cc([C@@H]2c3cc4c(cc3[C@@H](O[C@@H]3O[C@@H]5CO[C@@H](C)O[C@H]5[C@H](O)[C@H]3O)[C@H]3COC(=O)[C@H]23)OCO4)cc(OC)c1O [etoposide] + O=c1[nH]nc(Sc2ncc([N+](=O)[O-])s2)n1-c1ccc2c(c1)OCCO2 [BI78D3] (first compound 0.1 µM, partner dose 1 µM) | 69.4% | 94.3% | 78.2% | 
3 | C[C@]1(O)C[C@@H](c2nc(-c3ccc4ccc(-c5ccccc5)nc4c3)c3c(N)nccn32)C1 + O=C(O)c1ccc(-c2c[nH]c3ncc(-c4ccccc4)cc23)cc1C1CCCC1 [GSK650394] (first compound 2 µM, partner dose 0.8 µM) | 93.4% | 107% | 82.5% | 
4 | COc1cc([C@@H]2c3cc4c(cc3[C@@H](O[C@@H]3O[C@@H]5CO[C@@H](C)O[C@H]5[C@H](O)[C@H]3O)[C@H]3COC(=O)[C@H]23)OCO4)cc(OC)c1O [etoposide] + Cn1sc(=O)n(Cc2ccccc2)c1=O [TDZD-8] (first compound 0.1 µM, partner dose 2 µM) | 93.4% | 77.4% | 65.8% | 
5 | Cn1cnc2c(F)c(Nc3ccc(Br)cc3Cl)c(C(=O)NOCCO)cc21 [selumetinib] + Cn1cncc1[C@@](N)(c1ccc(Cl)cc1)c1ccc2c(c1)c(-c1cccc(Cl)c1)cc(=O)n2C [tipifarnib] (first compound 0.075 µM, partner dose 0.05 µM) | 65.2% | 88.3% | 69.2% | 
6 | COc1cc([C@@H]2c3cc4c(cc3[C@@H](O[C@@H]3O[C@@H]5CO[C@@H](C)O[C@H]5[C@H](O)[C@H]3O)[C@H]3COC(=O)[C@H]23)OCO4)cc(OC)c1O [etoposide] + COc1cc2c(Oc3ccc4[nH]c(C)cc4c3F)ncnc2cc1OCCCN1CCCC1 [cediranib] (first compound 0.1 µM, partner dose 2 µM) | 104% | 79.8% | 66.7% | 
7 | Cn1cnc2c(F)c(Nc3ccc(Br)cc3Cl)c(C(=O)NOCCO)cc21 [selumetinib] + CCCS(=O)(=O)Nc1ccc(F)c(C(=O)c2c[nH]c3ncc(Cl)cc23)c1F [PLX4720] (first compound 0.075 µM, partner dose 0.4 µM) | 70.5% | 100% | 85.5% | 
8 | COc1cc([C@@H]2c3cc4c(cc3[C@@H](O[C@@H]3O[C@@H]5CO[C@@H](C)O[C@H]5[C@H](O)[C@H]3O)[C@H]3COC(=O)[C@H]23)OCO4)cc(OC)c1O [etoposide] + COCC[n+]1c2c(n(Cc3cnccn3)c1C)C(=O)c1ccccc1C2=O [YM155] (first compound 0.1 µM, partner dose 0.002 µM) | 54% | 17.5% | 72.4% | 
9 | CCN(CC)CCNC(=O)c1c(C)[nH]c(/C=C2\C(=O)Nc3ccc(F)cc32)c1C [sunitinib] + C[C@@H](Oc1cc(-c2cnn(C3CCNCC3)c2)cnc1N)c1c(Cl)ccc(F)c1Cl [Crizotinib] (first compound 2 µM, partner dose 1 µM) | 63.1% | 46.3% | 74.2% | 
10 | CCN(CC)CCNC(=O)c1c(C)[nH]c(/C=C2\C(=O)Nc3ccc(F)cc32)c1C [sunitinib] + N#Cc1c(O)c2c(-c3ccc(-c4ccccc4O)cc3)csc2[nH]c1=O [A769662] (first compound 2 µM, partner dose 10 µM) | 73.6% | 85.5% | 115% | 39.3%
11 | COc1cc([C@@H]2c3cc4c(cc3[C@@H](O[C@@H]3O[C@@H]5CO[C@@H](C)O[C@H]5[C@H](O)[C@H]3O)[C@H]3COC(=O)[C@H]23)OCO4)cc(OC)c1O [etoposide] + NC(=O)c1ccc(N(C(N)=O)c2c(F)cccc2F)nc1-c1ccc(F)cc1F [VX702] (first compound 0.1 µM, partner dose 2 µM) | 97.8% | 74.6% | 87.6% | 
12 | Cn1cnc2c(F)c(Nc3ccc(Br)cc3Cl)c(C(=O)NOCCO)cc21 [selumetinib] + C#Cc1cccc(Nc2ncnc3cc(OCCOC)c(OCCOC)cc23)c1 [erlotinib] (first compound 0.075 µM, partner dose 4 µM) | 60.6% | 73.6% | 95.4% | 
13 | C[C@]1(O)C[C@@H](c2nc(-c3ccc4ccc(-c5ccccc5)nc4c3)c3c(N)nccn32)C1 + NC(=O)Nc1cc(-c2cccc(F)c2)sc1C(=O)N[C@H]1CCCNC1 [AZD7762] (first compound 2 µM, partner dose 0.1 µM) | 52.9% | 80.8% | 46% | 
14 | COc1cc([C@@H]2c3cc4c(cc3[C@@H](O[C@@H]3O[C@@H]5CO[C@@H](C)O[C@H]5[C@H](O)[C@H]3O)[C@H]3COC(=O)[C@H]23)OCO4)cc(OC)c1O [etoposide] + Nc1ccn([C@@H]2O[C@H](CO)[C@@H](O)C2(F)F)c(=O)n1 [gemcitabine] (first compound 0.1 µM, partner dose 0.002 µM) | 64.2% | 46% | 69.9% | 
15 | C[C@]1(O)C[C@@H](c2nc(-c3ccc4ccc(-c5ccccc5)nc4c3)c3c(N)nccn32)C1 + Clc1ccc(Nc2nnc(Cc3ccncc3)c3ccccc23)cc1 [vatalanib] (first compound 2 µM, partner dose 10 µM) | 87.8% | 76.3% | 83% | 
16 | Cn1cnc2c(F)c(Nc3ccc(Br)cc3Cl)c(C(=O)NOCCO)cc21 [selumetinib] + COc1cc2c(Oc3ccc4[nH]c(C)cc4c3F)ncnc2cc1OCCCN1CCCC1 [cediranib] (first compound 0.075 µM, partner dose 2 µM) | 65.2% | 91.9% | 82% | 
17 | CCN(CC)CCNC(=O)c1c(C)[nH]c(/C=C2\C(=O)Nc3ccc(F)cc32)c1C [sunitinib] + CO[C@H]1C[C@@H]2CC[C@@H](C)[C@@](O)(O2)C(=O)C(=O)N2CCCC[C@H]2C(=O)O[C@H]([C@H](C)C[C@@H]2CC[C@@H](OCCO)[C@H](OC)C2)CC(=O)[C@H](C)/C=C(\C)[C@@H](O)[C@@H](OC)C(=O)[C@H](C)C[C@H](C)/C=C/C=C/C=C/1C [everolimus] (first compound 2 µM, partner dose 0.1 µM) | 59.1% | 33.5% | 77.2% | 
18 | Cn1cnc2c(F)c(Nc3ccc(Br)cc3Cl)c(C(=O)NOCCO)cc21 [selumetinib] + O=C(O)c1ccc(-c2c[nH]c3ncc(-c4ccccc4)cc23)cc1C1CCCC1 [GSK650394] (first compound 0.075 µM, partner dose 0.8 µM) | 68.2% | 85.6% | 93.2% | 
19 | COc1cc([C@@H]2c3cc4c(cc3[C@@H](O[C@@H]3O[C@@H]5CO[C@@H](C)O[C@H]5[C@H](O)[C@H]3O)[C@H]3COC(=O)[C@H]23)OCO4)cc(OC)c1O [etoposide] + O=C(O)c1ccc(-c2c[nH]c3ncc(-c4ccccc4)cc23)cc1C1CCCC1 [GSK650394] (first compound 0.1 µM, partner dose 0.8 µM) | 94.2% | 81.8% | 83.8% | 
20 | COc1cc([C@@H]2c3cc4c(cc3[C@@H](O[C@@H]3O[C@@H]5CO[C@@H](C)O[C@H]5[C@H](O)[C@H]3O)[C@H]3COC(=O)[C@H]23)OCO4)cc(OC)c1O [etoposide] + COC(=O)c1sccc1S(=O)(=O)Nc1ccc(Nc2ccccc2)cc1OC [GSK0660] (first compound 0.1 µM, partner dose 5 µM) | 94.7% | 88.4% | 81.8% | 
21 | CCN(CC)CCNC(=O)c1c(C)[nH]c(/C=C2\C(=O)Nc3ccc(F)cc32)c1C [sunitinib] + OCc1c[nH]c2ccccc12 [Indole-3-carbinol] (first compound 2 µM, partner dose 4 µM) | 48.8% | 74.4% | 109% | 
22 | CCN(CC)CCNC(=O)c1c(C)[nH]c(/C=C2\C(=O)Nc3ccc(F)cc32)c1C [sunitinib] + C#Cc1cccc(Nc2ncnc3cc(OCCOC)c(OCCOC)cc23)c1 [erlotinib] (first compound 2 µM, partner dose 4 µM) | 44.5% | 51.7% | 74.6% | 
23 | C[C@]1(O)C[C@@H](c2nc(-c3ccc4ccc(-c5ccccc5)nc4c3)c3c(N)nccn32)C1 + CCCCCCCCc1ccc(CCC(N)(CO)CO)cc1 [fingolimod] (first compound 2 µM, partner dose 10 µM) | 11% | 13.8% | 45.4% | 
24 | Cn1cnc2c(F)c(Nc3ccc(Br)cc3Cl)c(C(=O)NOCCO)cc21 [selumetinib] + C[C@@H]1CCN(C(=O)CC#N)C[C@@H]1N(C)c1ncnc2[nH]ccc12 [CP690550] (first compound 0.075 µM, partner dose 5 µM) | 89.2% | 123% | 81.2% | 
25 | C[C@]1(O)C[C@@H](c2nc(-c3ccc4ccc(-c5ccccc5)nc4c3)c3c(N)nccn32)C1 + C=C(c1ccc(C(=O)O)cc1)c1cc2c(cc1C)C(C)(C)CCC2(C)C [Bexarotene] (first compound 2 µM, partner dose 10 µM) | 110% | 93.6% | 83.3% | 
26 | CCN(CC)CCNC(=O)c1c(C)[nH]c(/C=C2\C(=O)Nc3ccc(F)cc32)c1C [sunitinib] + Cc1ccc(NC(=O)c2cccc(N(C)C)c2)cc1NC(=O)c1ccc(O)cc1 [ZM336372] (first compound 2 µM, partner dose 10 µM) | 61.8% | 69% | 78.8% | 
27 | C[C@]1(O)C[C@@H](c2nc(-c3ccc4ccc(-c5ccccc5)nc4c3)c3c(N)nccn32)C1 + C=CCn1c(=O)c2cnc(Nc3ccc(N4CCN(C)CC4)cc3)nc2n1-c1cccc(C(C)(C)O)n1 [MK1775] (first compound 2 µM, partner dose 0.1 µM) | 69% | 79.3% | 41% | 
28 | COc1cc([C@@H]2c3cc4c(cc3[C@@H](O[C@@H]3O[C@@H]5CO[C@@H](C)O[C@H]5[C@H](O)[C@H]3O)[C@H]3COC(=O)[C@H]23)OCO4)cc(OC)c1O [etoposide] + CNC(=O)c1cc(Oc2ccc(NC(=O)Nc3ccc(Cl)c(C(F)(F)F)c3)cc2)ccn1 [sorafenib] (first compound 0.1 µM, partner dose 2 µM) | 106% | 95.5% | 91.9% | 
